According to paper PMC4336329 (PLoS ONE, 2015):
The whole screen tested about 310,000 compounds, of which about 14,000 (4.5%) showed an effect of 50% or more. Effects have a minus sign here. This is one part of the list.

Target: human ether-à-go-go-related gene (hERG) potassium channel (human, UniProt Q12809)
Assay: primary screen, population patch clamp on CHO cells stably expressing hERG
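Further: peak tail current of the secondary pulse compared with the same well before compound.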

Chain of human ether-à-go-go-related gene (hERG) potassium channel (Q12809 whole entry, looked up): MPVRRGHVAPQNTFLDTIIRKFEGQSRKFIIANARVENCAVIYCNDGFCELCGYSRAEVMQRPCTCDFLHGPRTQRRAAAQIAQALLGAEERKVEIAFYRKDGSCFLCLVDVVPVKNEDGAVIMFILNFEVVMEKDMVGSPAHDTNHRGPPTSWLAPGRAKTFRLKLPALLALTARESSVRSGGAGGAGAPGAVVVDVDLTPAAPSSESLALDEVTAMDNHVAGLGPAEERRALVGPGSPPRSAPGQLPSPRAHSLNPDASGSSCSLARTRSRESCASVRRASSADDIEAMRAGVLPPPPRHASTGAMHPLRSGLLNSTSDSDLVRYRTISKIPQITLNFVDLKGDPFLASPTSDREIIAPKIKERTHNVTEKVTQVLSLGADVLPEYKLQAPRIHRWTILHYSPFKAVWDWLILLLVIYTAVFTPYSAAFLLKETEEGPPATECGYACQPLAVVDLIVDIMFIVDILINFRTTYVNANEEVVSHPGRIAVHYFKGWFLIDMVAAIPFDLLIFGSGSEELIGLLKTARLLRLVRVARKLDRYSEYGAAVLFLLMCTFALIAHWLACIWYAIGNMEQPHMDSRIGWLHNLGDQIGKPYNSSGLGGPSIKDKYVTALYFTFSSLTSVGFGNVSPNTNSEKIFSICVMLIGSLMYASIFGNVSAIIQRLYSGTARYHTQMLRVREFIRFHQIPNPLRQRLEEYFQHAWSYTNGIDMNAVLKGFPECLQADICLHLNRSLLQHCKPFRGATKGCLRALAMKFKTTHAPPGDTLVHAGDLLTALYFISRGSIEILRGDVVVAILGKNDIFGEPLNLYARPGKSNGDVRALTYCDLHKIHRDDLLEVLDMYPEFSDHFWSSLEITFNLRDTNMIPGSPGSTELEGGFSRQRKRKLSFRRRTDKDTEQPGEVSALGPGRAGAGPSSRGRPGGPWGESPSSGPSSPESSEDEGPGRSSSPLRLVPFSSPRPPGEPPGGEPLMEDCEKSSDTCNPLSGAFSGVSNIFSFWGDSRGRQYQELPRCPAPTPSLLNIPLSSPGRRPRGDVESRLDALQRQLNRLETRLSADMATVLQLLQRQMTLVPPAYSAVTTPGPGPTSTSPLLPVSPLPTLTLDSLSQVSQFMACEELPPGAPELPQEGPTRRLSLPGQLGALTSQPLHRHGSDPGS

| SMILES | hERG current change (%, negative = inhibition) at 10uM [%] |
| --- | --- |
| N#Cc1cc([N+](=O)[O-])ccc1NC(=O)COC(=O)CCC1CCCCC1 | 23.9 |
| CC1CN(C(=O)c2cc3ccccc3oc2=O)CC(C)O1 (stereo not drawn) | -7 |
| CCn1c(SCc2ccc(C#N)cc2)nnc1-c1cccc(Cl)c1 | -73.6 |
| CC1(C)CC(=O)C(C=NCCN2CCN(C3CC(=O)N(c4ccc(Cl)c(Cl)c4)C3=O)CC2)=C(O)C1 (stereo not drawn) | -50.2 |
| CCOC(=O)N1CCC(N(CCN(C)C)C(=S)Nc2cc(Cl)cc(Cl)c2)CC1 | -1.07 |
| Cc1occc1C(=O)N1CCN(c2ccc(Cl)c(Cl)c2)CC1 | -17.9 |
| C/C(CC(=O)NCc1ccco1)=N\NC(=O)COc1ccc(C)cc1 | -1.31 |
| O=c1[nH]c(C2CCCN(S(=O)(=O)c3ccccc3)C2)nc2c1nnn2Cc1ccccc1 (stereo not drawn) | -18.4 |
| CN1C(=O)C(CC(=O)NCCc2ccccc2)N(NC(=O)c2ccc(Cl)cc2)C1=S (stereo not drawn) | 1.83 |
| Cc1ccc(Oc2nc3ccccc3n3c(C)nnc23)cc1 | 11 |
| CC(=O)Oc1ccccc1C(=O)Oc1ccc(/C=N/n2cnnc2)cc1 | -25.1 |
| O=[N+]([O-])c1ccc2c(c1)S(=O)c1ccccc1-2 (stereo not drawn) | 7.17 |
| CC(Sc1n[nH]c(-c2ccccc2F)n1)C(=O)Nc1ccc(S(N)(=O)=O)cc1 (stereo not drawn) | 6.45 |
| O=C(NCC(=O)N(c1ccc(Cl)cc1)C(C(=O)NC1CCCC1)c1cccnc1)c1ccco1 (stereo not drawn) | 16.6 |
| COc1ccc(/C=N/n2cnc3c(sc(=S)n3-c3ccccc3)c2=O)cc1 | 13.4 |
| COc1ccc(C2(C)NC(=O)N(Cc3cc(Cl)cc4c3OCOC4)C2=O)cc1OC (stereo not drawn) | -4.4 |
| CCCCC(=O)NC(c1ccccc1OC)c1ccc2cccnc2c1O (stereo not drawn) | -5.73 |
| COc1ccc(NC(=O)Nc2ccccc2F)cc1Cl | 32.4 |
| COc1cc(C(=S)N2CCC(Cc3ccccc3)CC2)ccc1OCC(N)=O | -46.8 |
| CC(C)C1/C(=N/O)CC(c2ccccc2)NC1c1ccccc1 (stereo not drawn) | 11.3 |
| O=C(NCCCl)Nc1cccnc1Cl | 12.2 |
| CCOC(=O)c1ccc(NC(=S)N2CCN(CCN=CC3=C(O)CC(c4ccccc4)CC3=O)CC2)cc1 (stereo not drawn) | -19.9 |
| O=S1(=O)CCC(NC(=S)NCCNC(=S)NC2CCS(=O)(=O)C2)C1 (stereo not drawn) | 8.43 |
| CN1CC2(Cc3c1ccc1ccccc31)C(=O)OC(C)(C)OC2=O | 18 |
| CC1=C(C(=O)OCc2ccccc2)C(c2ccc3c(c2)OCO3)NC(=O)N1CCCC(=O)O (stereo not drawn) | 11 |
| CC(=O)N1CCN(S(=O)(=O)c2cccc(C(=O)NC3CCCc4ccccc43)c2)CC1 (stereo not drawn) | -6.31 |
| O=C(CSc1nc2ccccc2o1)N1c2ccccc2Sc2ccccc21 | -19.9 |

| SMILES | hERG current change (%, negative = inhibition) at 10uM [%] |
| --- | --- |
| CCOC(=O)c1ccc(N=Nc2c(C)c(C#N)c(O)[nH]c2=O)cc1 | 1.91 |
| O=C1c2ccccc2S(=O)(=O)N1CC1CC(c2ccccc2Cl)=NO1 (stereo not drawn) | -4.75 |
| Cc1c(OCC(=O)NCc2ccncc2)ccc2c3c(c(=O)oc12)CCC3 | -0.0872 |
| CC(=O)N1CCc2cc(S(=O)(=O)NC(CC(C)C)C(=O)Nc3cc(C)ccn3)ccc21 (stereo not drawn) | 14.1 |
| Cc1noc(C)c1C(=O)Nc1ccc(C#N)cc1 | 17.3 |
| Cn1cccc1/C=N\NC(=O)C1COc2ccc(C(C)(C)C)cc2O1 (stereo not drawn) | -3.42 |
| CC(NC(=O)CN(C)Cc1cccc(Cl)c1)c1ccccc1 (stereo not drawn) | -15.3 |
| COc1ccccc1C(=O)Nc1ccc(S(=O)(=O)Nc2nccs2)cc1 | 15.7 |
| CC1CC(C)CN(C(=O)Cn2c(=O)n(CCCCC(=O)NCc3ccco3)c(=O)c3ccccc32)C1 (stereo not drawn) | -10.5 |
| O=C(COc1ccc(Br)cc1)OCc1nnc(-c2ccccc2)o1 | 9.77 |
| O=C(/C=C/c1cccc(F)c1)Nc1nccs1 | 12 |
| O=C(c1nsnc1-c1ccccc1O)N1CCCCC1 | 9.56 |
| O=c1[nH]c(CN2CCN(c3ccccn3)CC2)nc2c(Br)cc(Br)cc12 | -33.2 |
| CC(C)C[C@H](N)C(=O)N1CCC(C(=O)N[C@H](C(=O)NCc2ccc(F)cc2)C(C)C)CC1 | -3.91 |
| COc1ccnc(Oc2ccc(Cl)cc2)c1C#N | 0.996 |
| COc1ccc(N2CCN(C(=O)CN3CCN(C(c4ccccc4)c4ccccc4)CC3)CC2)cc1.Cl | -46 |
| COCCNc1nnc(SCC(=O)Nc2cc(-c3ccccc3)nn2-c2ccccc2)s1 | -50.9 |
| CCCCOc1[nH]c2nc(-c3ccco3)n(Cc3ccco3)c(=N)c2c1C#N | -69.1 |
| Cc1ccc2c(c1)c(C)cc(=O)n2CCC(=O)O | 6.86 |
| O=C(NCCN1CCOCC1)/C(=C/c1ccco1)NC(=O)c1ccccc1 | -5.48 |
| CCCOc1ccc([N+](=O)[O-])cc1C1NC(=S)NC(c2ccccc2)=C1C(=O)OCC (stereo not drawn) | 13.9 |
| CCCCOC(=O)C1CCCC(C(=O)OCCCC)N1.Cl (stereo not drawn) | 9.8 |
| CC1=Nc2ccccc2/C1=C\c1nc(-c2ccc(C(F)(F)F)cc2)oc1O | 15.3 |
| Cc1ccc(S(=O)(=O)CC(=O)c2cc3cccc(C)c3oc2=O)cc1 | 17.1 |
| Cc1ccc(CNC(=O)c2nnn(CC(=O)Nc3cccc(C)c3C)c2N)cc1 | 16.1 |
| COc1ccc(CNS(=O)(=O)c2ccc(F)c(C(=O)Nc3ccc(OC)cc3)c2)cc1 | -4.19 |
| C=CCNC(=O)C1(S(=O)(=O)c2ccccc2)CC=CC1 | 2.62 |
